# Assay results taken from the supplement of paper PMC9446081.
# The whole screen tested about 39,000 compounds, of which about 220 (0.56%) showed activity. The list shows a part of the results.
# Tested on: Escherichia coli K-12 BW25113
# Assay: relative growth (OD600 normalised to plate interquartile mean) (fraction); higher = less growth inhibition, active = 0.2 or less
# Conditions: 50 µM; LB; incubation time: overnight (16-24 h)
# 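Further: static incubation at 37 °C against the wild-type strain, values averaged over two biological replicates.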
row,SMILES,relative growth
1,Cn1c(=O)c2c(NCCO)ccnc2n(C)c1=O,inactive: 0.995
2,COc1ccc(S(=O)(=O)Nc2cccc3c2O[C@H](CN(C)C(=O)NC(C)C)[C@@H](C)CN([C@H](C)CO)C3=O)cc1,inactive: 1.01
3,CC(C)NC(=O)N(C)C[C@@H]1Oc2c(NS(=O)(=O)c3ccc(Cl)cc3)cccc2C(=O)N([C@@H](C)CO)C[C@@H]1C,inactive: 1.09
4,O=C(C[C@H]1CC[C@@H]2[C@H](COC[C@H](O)CN2S(=O)(=O)c2ccc(Cl)cc2)O1)NCCN1CCCC1,inactive: 0.992
5,Cc1noc(C)c1S(=O)(=O)Nc1ccc2c(c1)C(=O)N([C@H](C)CO)C[C@H](C)[C@H](CN(C)C(=O)Nc1ccc(C(F)(F)F)cc1)OCCCC[C@H](C)O2,inactive: 0.94
6,CCS(=O)(=O)N1CC[C@]2(CC1)CN(Cc1ccccc1OC)[C@@H](CO)c1c2c2ccc(cc2n1C)OC,inactive: 1.03
7,COc1ccc(NC(=O)Nc2ccc3c(c2)CC(=O)N([C@H](C)CO)C[C@H](C)[C@H](CN(C)C(=O)Nc2cccc4ccccc24)O3)cc1,inactive: 0.963
8,C[C@@H]1CCCCO[C@@H](CN(C)C(=O)NC2CCCCC2)[C@@H](C)CN([C@@H](C)CO)C(=O)c2cc(NS(=O)(=O)c3ccc(F)cc3)ccc2O1,inactive: 0.991
9,CCS(=O)(=O)N1CC[C@@H]2CO[C@H](CN3CCN(C)CC3)[C@@H]2C1,inactive: 0.937
10,N[C@@H]1CCCN(c2c(Br)cnc3[nH]cc(NC(=O)C4CC4)c23)C1,inactive: 0.878
11,COc1cccc(C#Cc2ccc3c(c2)O[C@H](CN(C)C(=O)c2ccccn2)[C@@H](C)CN([C@H](C)CO)S3(=O)=O)c1,inactive: 1.04
12,COc1ccc(S(=O)(=O)Nc2ccc3c(c2)C(=O)N([C@@H](C)CO)C[C@@H](C)[C@@H](CN(C)S(C)(=O)=O)OCCCC[C@@H](C)O3)cc1,inactive: 0.982
13,O=c1cc(-c2cc(O)c(O)c(O)c2)oc2cc(O)cc(O)c12,inactive: 0.994
14,C[C@@H]1CN([C@H](C)CO)C(=O)c2cc(NS(=O)(=O)c3ccc(F)cc3)ccc2O[C@H]1CN(C)S(=O)(=O)c1ccc(F)cc1,inactive: 1.03
15,COc1ccc(S(=O)(=O)N(C)C[C@H]2Oc3ccc(NS(=O)(=O)c4cccs4)cc3C(=O)N([C@@H](C)CO)C[C@@H]2C)cc1,inactive: 1.02
16,CCOn1c(=O)c(=O)n(OC)c2ccccc21,inactive: 1.01
17,CC(=O)N[C@@H](C(=O)O)C(C)(C)S[NH2+][O-],inactive: 1.02
18,O=C(C[C@@H]1CC[C@H](NC(=O)CN2CCOCC2)[C@@H](CO)O1)NCc1cccc(F)c1,inactive: 1.01
19,C[C@H]1CN([C@@H](C)CO)C(=O)Cc2cc(NC(=O)Nc3ccc(F)cc3)ccc2O[C@H]1CN(C)Cc1ccc(C(=O)Nc2ccccc2N)cc1,inactive: 1.01
20,COc1ccc(NC(=O)Nc2ccc3c(c2)C(=O)N([C@H](C)CO)C[C@@H](C)[C@@H](CN(C)CC2CCCCC2)O3)cc1,inactive: 1.02
21,Cl.Nc1c(Br)cc(Br)cc1CNC1CCC(O)CC1 (stereo unspecified),inactive: 1.09

row,SMILES,relative growth
1,CC(C)c1ccc(/C=C/C(=O)Nc2nc3ccccc3s2)cc1,inactive: 1.02
2,COc1cccc(S(=O)(=O)Nc2ccc3c(c2)[C@@H]2C[C@@H](CC(=O)NCC(F)(F)F)O[C@@H](CO)[C@@H]2O3)c1,inactive: 1.01
3,O=C(C[C@H]1CC[C@H]2[C@@H](COC[C@H](O)CN2C(=O)Nc2cccc(F)c2)O1)NCc1ccccc1Cl,inactive: 0.892
4,CSc1n[nH]c(=O)c2cc(C)nn12,inactive: 0.992
5,CC(C)(C)OC(=O)NC(=NCCn1cc(-c2cccc(/C=C/C(=O)NO)c2)nn1)NC(=O)OC(C)(C)C,inactive: 1.04
6,C[C@@H]1CN([C@H](C)CO)C(=O)c2cc(NC(=O)Nc3ccc(C(F)(F)F)cc3)ccc2O[C@@H](C)CCCCO[C@H]1CN(C)S(=O)(=O)c1ccccc1,inactive: 1.04
7,C[C@H]1CN([C@@H](C)CO)C(=O)c2cccc(NC(=O)c3cnccn3)c2O[C@@H]1CN(C)Cc1ccncc1,inactive: 0.997
8,NC(=O)CSc1nnnn1-c1ccccc1,inactive: 1.02
9,C[C@@H]1CCCCO[C@H](CN(C)C(=O)C2CCCCC2)[C@@H](C)CN([C@@H](C)CO)C(=O)c2cc(NC(=O)Nc3cccc4ccccc34)ccc2O1,inactive: 0.986
10,COc1ccc(S(=O)(=O)N(C)C[C@@H]2OCCCC[C@@H](C)Oc3ccc(NC(=O)CCC(F)(F)F)cc3C(=O)N([C@@H](C)CO)C[C@@H]2C)cc1,inactive: 1.03
11,COCC#Cc1ccc2c(c1)O[C@@H](CN(C)C(=O)COC)[C@H](C)CN([C@H](C)CO)S2(=O)=O,inactive: 0.99
12,CC(C)NC(=O)N(C)C[C@@H]1Oc2ccc(NS(=O)(=O)c3ccc(F)cc3)cc2C(=O)N([C@H](C)CO)C[C@@H]1C,inactive: 0.982
13,CN(C)CC(=O)N[C@@H]1CC[C@H](CC(=O)NCCN2CCCCC2)O[C@@H]1CO,inactive: 0.991
14,CN(C)C(=O)C[C@@H]1C=C[C@@H](NC(=O)C2CC2)[C@@H](CO)O1,inactive: 0.99
15,COCC(=O)N1C[C@H](C)[C@@H](OC)CN(C)C(=O)c2cc(NC(=O)c3cc(C)on3)ccc2OC[C@@H]1C,inactive: 0.987
16,COc1ccc(N2C(=O)C[C@@H](N3CCCN([C@H]4CC(=O)N(c5ccc(OC)cc5)C4=O)CC3)C2=O)cc1,inactive: 1.01
17,COc1c(C)c2c(c(O)c1CC=C(C)CCC(=O)O)C(=O)OC2,inactive: 1.12
18,Cc1ccc(S(=O)(=O)N(C)C[C@H]2Oc3c(NC(=O)C4CC4)cccc3C(=O)N([C@@H](C)CO)C[C@H]2C)cc1,inactive: 0.995
19,C[C@H](CO)N1C[C@H](C)[C@H](CN(C)C(=O)Nc2ccc(N3CCCCC3)cc2)OCc2cnnn2CCCC1=O,inactive: 1.02
20,Cc1noc(C)c1S(=O)(=O)N(C)C[C@@H]1OCCCC[C@@H](C)Oc2ccc(NC(=O)Nc3cccc4ccccc34)cc2C(=O)N([C@H](C)CO)C[C@H]1C,inactive: 1.05
